Consider 3 molecules from paper PMC10213050.

Chains of the proteins cited; added tags and fusions are not shown.
UniProt P12954: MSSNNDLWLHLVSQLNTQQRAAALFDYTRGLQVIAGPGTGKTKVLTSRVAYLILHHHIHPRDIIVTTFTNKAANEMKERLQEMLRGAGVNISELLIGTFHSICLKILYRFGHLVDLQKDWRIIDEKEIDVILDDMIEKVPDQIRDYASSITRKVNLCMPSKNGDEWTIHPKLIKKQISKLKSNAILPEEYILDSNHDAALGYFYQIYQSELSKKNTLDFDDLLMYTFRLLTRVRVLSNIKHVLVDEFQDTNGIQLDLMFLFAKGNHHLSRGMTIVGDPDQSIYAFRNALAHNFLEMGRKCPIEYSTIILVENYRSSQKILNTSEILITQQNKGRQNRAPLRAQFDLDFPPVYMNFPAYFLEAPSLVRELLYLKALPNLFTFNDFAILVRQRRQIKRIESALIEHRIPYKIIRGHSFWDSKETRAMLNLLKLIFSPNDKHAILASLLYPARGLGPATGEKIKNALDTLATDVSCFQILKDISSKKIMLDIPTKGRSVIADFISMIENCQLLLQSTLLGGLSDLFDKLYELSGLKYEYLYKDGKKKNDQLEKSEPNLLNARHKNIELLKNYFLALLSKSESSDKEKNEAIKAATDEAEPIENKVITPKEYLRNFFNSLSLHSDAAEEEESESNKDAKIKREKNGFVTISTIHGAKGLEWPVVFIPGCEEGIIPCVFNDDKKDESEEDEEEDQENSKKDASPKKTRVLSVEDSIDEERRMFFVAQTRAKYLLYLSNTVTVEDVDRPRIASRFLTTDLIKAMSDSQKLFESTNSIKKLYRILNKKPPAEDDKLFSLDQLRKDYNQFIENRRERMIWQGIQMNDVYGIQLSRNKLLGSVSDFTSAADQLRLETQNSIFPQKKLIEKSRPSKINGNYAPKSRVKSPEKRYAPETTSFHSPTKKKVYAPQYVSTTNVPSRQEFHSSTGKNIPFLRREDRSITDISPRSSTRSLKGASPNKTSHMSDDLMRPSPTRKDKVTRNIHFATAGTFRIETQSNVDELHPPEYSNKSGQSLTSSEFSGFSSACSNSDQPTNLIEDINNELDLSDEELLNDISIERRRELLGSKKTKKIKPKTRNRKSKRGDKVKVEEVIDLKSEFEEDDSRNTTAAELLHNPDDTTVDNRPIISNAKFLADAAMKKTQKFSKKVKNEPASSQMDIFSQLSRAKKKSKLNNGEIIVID
UniProt P25454: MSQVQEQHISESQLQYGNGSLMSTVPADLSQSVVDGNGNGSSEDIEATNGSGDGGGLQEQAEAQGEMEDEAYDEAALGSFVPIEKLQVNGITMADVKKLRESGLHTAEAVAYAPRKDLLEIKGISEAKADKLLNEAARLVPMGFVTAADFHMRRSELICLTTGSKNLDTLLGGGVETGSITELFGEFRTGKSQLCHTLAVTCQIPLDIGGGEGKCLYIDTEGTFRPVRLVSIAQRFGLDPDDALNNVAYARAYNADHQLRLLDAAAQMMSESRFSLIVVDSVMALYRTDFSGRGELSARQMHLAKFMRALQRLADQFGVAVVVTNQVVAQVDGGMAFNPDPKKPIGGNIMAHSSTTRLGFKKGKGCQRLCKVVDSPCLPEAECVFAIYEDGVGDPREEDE

The target in experiment [1] is GST-Srs2 (yeast (Saccharomyces cerevisiae)) (UniProt P12954). Nature of the experiment: pull-down; GST-Srs2 on beads with 6xHis-tagged WT, truncated or mutated Bre1; detected by Western blot with an anti-His antibody; whether ssDNA was included is not told; both purified.
The target in experiment [2] is 6xHis-Rad51 (yeast (Saccharomyces cerevisiae)) (UniProt P25454). Nature of the experiment: native gel or EMSA; Rad51 or hRad51 on circular M13 mp18 ssDNA (100 nM), then Bre1, bre1-EK2A or RNF20N added, 37 °C 15 min; glutaraldehyde cross-linking; 0.8% agarose gel; both purified.

These are yes or no findings as the source states them, for the method shown. Where a sequence is shown, tags or fusion partners need not be part of it.

B1: 6xHis-Bre1-DK2A (enzyme, UniProt Q07457 1-700)
chain: MTAEPATKKIKLELSDPSEPLTQSDVIAFQKEALFRCINRRRVDFEALRKQYELSRRECIDVSRKLANIMALIVTLARFIETFCTDANEKQLCREIAQGDETLIVQRSDSFMKLLTKYGKPNTTDSNTNSNASDHIQELTTELKNLRKSKEELFYENSQLTEEISALKEYYTNIIRKYDRDESFTIKRVFKEDKTDAVKELREDEKESNENNIKSGNKDSSAINGDNTSKKSEKGDELVQAEDERKEDAENEKLELDLKFSDLRAEINSLSSTIKDLENIRRENEEELIKTRSEVSNLKKQQIAAADQDPDFKSYDHESLLAKIQHLTEQNAELSEINSSFLSKFQVLAKEKEIYTKKVREEFQKSLDSLVEMNSSLEKDVVRIRTARDDLLSKIAILEAEKSKTEVLSDLQHAIDILKEQWTKIDQRSNDTKSSSTQDALIKEIQDLEKGFRELSDLTHKKYSEIINHESVISKLTVEKTKAAQAYFAAMRSKDSILIEIKTLSKSLSKSNELILQLKDSDRLLQQKIGNLHKQLDLSQNNERRLIDSSKTETLKIIDLNNTSTKLKRSLEKLQEESNKSIADMTHLETKLNDTEIELKHFKQKASHLESKCEKLHDTLFRGNNKNKGSSDEALVEELANFRTLVYCSLCSKNWKNMAIKTCGHVFCENCCKERLAARMRKCPTCNKAFSSNDLLTVHL
Regarding B1, the binding entry in experiment [1] was “no binding”.

B2: 6xHis-bre1-EK2A (enzyme, UniProt Q07457 1-700)
chain: MTAEPATKKIKLELSDPSEPLTQSDVIAFQKEALFRCINRRRVDFEALRKQYELSRRECIDVSRKLANIMALIVTLARFIETFCTDANEKQLCREIAQGDETLIVQRSDSFMKLLTKYGKPNTTDSNTNSNASDHIQELTTELKNLRKSKEELFYENSQLTEEISALKEYYTNIIRKYDRDESFTIKRVFKEDKTDAVKELREDEKESNENNIKSGNKDSSAINGDNTSKKSEKGDELVQAEDERKEDAENEKLELDLKFSDLRAEINSLSSTIKDLENIRRENEEELIKTRSEVSNLKKQQIAAADQDPDFKSYDHESLLAKIQHLTEQNAELSEINSSFLSKFQVLAKEKEIYTKKVREEFQKSLDSLVEMNSSLEKDVVRIRTARDDLLSKIAILEAEKSKTEVLSDLQHAIDILKEQWTKIDQRSNDTKSSSTQDALIKEIQDLEKGFRELSDLTHKKYSEIINHESVISKLTVEKTKADQKYFAAMRSKDSILIAIATLSKSLSKSNELILQLKDSDRLLQQKIGNLHKQLDLSQNNERRLIDSSKTETLKIIDLNNTSTKLKRSLEKLQEESNKSIADMTHLETKLNDTEIELKHFKQKASHLESKCEKLHDTLFRGNNKNKGSSDEALVEELANFRTLVYCSLCSKNWKNMAIKTCGHVFCENCCKERLAARMRKCPTCNKAFSSNDLLTVHL
Consider B2, for which the binding entry in experiment [2] is on record as “no binding”.

B3: 6xHis-tagged Bre1 truncation 1-485 aa (domain or fragment, UniProt Q07457 1-485)
chain: MTAEPATKKIKLELSDPSEPLTQSDVIAFQKEALFRCINRRRVDFEALRKQYELSRRECIDVSRKLANIMALIVTLARFIETFCTDANEKQLCREIAQGDETLIVQRSDSFMKLLTKYGKPNTTDSNTNSNASDHIQELTTELKNLRKSKEELFYENSQLTEEISALKEYYTNIIRKYDRDESFTIKRVFKEDKTDAVKELREDEKESNENNIKSGNKDSSAINGDNTSKKSEKGDELVQAEDERKEDAENEKLELDLKFSDLRAEINSLSSTIKDLENIRRENEEELIKTRSEVSNLKKQQIAAADQDPDFKSYDHESLLAKIQHLTEQNAELSEINSSFLSKFQVLAKEKEIYTKKVREEFQKSLDSLVEMNSSLEKDVVRIRTARDDLLSKIAILEAEKSKTEVLSDLQHAIDILKEQWTKIDQRSNDTKSSSTQDALIKEIQDLEKGFRELSDLTHKKYSEIINHESVISKLTVEKTKADQ
On to B3, for which the binding result in experiment [1] was “no binding”.
